{"source": "PubChem BioAssay AID1476", "about": "(National Center for Advancing Translational Sciences (NCATS), 2009)", "note": "In all, about 200,000 compounds went through this assay and about 4,500 (2.2%) were called active. The inconclusive results got no clear call from the source; some entries with a clear call stand among them for comparison. The call rests on the fitted dose curve; in most records, active means well fitted inhibition curve with a large enough effect; inconclusive means small, poorly fitted or top-dose-only effect, or effect the other way; inactive means flat fitted curve, though single readings scatter. Potencies beside an inconclusive call are fits to weak or partial responses and may not hold up. Potency means the concentration at half of the fitted maximal effect; tags describe the fitted curve by direction and shape.", "data": [{"molecular_target": "Cruzipain (Trypanosoma cruzi) (UniProt P25779)", "sequence (P25779 whole entry, looked up)": "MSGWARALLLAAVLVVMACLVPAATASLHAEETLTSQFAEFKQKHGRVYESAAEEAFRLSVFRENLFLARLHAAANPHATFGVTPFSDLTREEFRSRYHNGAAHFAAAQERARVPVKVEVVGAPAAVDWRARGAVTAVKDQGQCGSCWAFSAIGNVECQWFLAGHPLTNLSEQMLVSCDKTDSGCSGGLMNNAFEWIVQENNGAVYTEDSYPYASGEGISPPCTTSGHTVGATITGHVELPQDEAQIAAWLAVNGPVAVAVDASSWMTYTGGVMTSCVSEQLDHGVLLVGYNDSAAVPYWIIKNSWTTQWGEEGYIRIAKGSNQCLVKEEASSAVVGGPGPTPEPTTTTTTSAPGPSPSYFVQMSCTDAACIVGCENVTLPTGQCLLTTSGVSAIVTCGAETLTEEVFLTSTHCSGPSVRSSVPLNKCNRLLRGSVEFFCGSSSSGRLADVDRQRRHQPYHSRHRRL", "assay": "qHTS Assay for Promiscuous and Specific Inhibitors of Cruzain (without detergent); further: nearly all actives have a fitted effect of over 40% in size;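 on max response, negative = inhibition: plate controls were enzyme without inhibitor for no effect and buffer without enzyme for full effect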", "settings": "purified cruzain, Z-FR-AMC fluorescence, no detergent", "outline": "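Detergent-free condition (0.00005% Triton X-100) in acetate buffer pH 5.5 with DTT. 1.5 nM enzyme and compound were pre-mixed 15 min, then 2 uM Z-FR-AMC substrate added; reaction progress from fluorescence change between first and third reads (60 s).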", "values": [{"smiles": "Cc1ccc(CNc2nc3c(S(=O)(=O)c4ccccc4)nnn3c3ccsc23)cc1", "max response, negative = inhibition": "inactive: 16.4%"}, {"smiles": "COc1cc(/C=C/c2nc(C#N)c(NC3CCCCC3)o2)cc(OC)c1OC", "Potency": "inconclusive: 39.8 µM [activator, single point]"}, {"smiles": "CS(=O)(=O)N(CC(=O)N1CCN(c2ccccc2)CC1)c1cc(C(F)(F)F)ccc1Cl", "Potency": "inconclusive: 39.8 µM [activator, single point]"}, {"smiles": "Cc1cc(Br)ccc1NC(=O)c1cc2c(s1)-c1ccccc1SC2", "Potency": "active: 7.94 µM"}, {"smiles": "Cc1occc1-c1nnc(SCC(=O)c2cc3ccccc3oc2=O)o1", "Potency": "inconclusive: 39.8 µM [inhibitor, single point]"}, {"smiles": "Cc1[nH]nc(N=CC2=C(O)CC(c3ccco3)CC2=O)c1-c1ccccc1", "note": "(stereo not given)", "Potency": "inconclusive: 25.1 µM [activator, single point]"}, {"smiles": "CCOc1ccc(NC(=O)Cn2c(C)ccc(C#N)c2=O)cc1", "max response, negative = inhibition": "inactive: -12.5%"}, {"smiles": "CC1=C(/C=C/C(C)=C/C=C/C(C)=C/C=C/C=C(C)/C=C/C=C(C)/C=C/C2=C(C)C(=O)CCC2(C)C)C(C)(C)CCC1=O", "Potency": "inconclusive: 31.6 µM [activator, single point]"}, {"smiles": "CCOC(=O)c1cc(-c2ccccc2)n(CCC(=O)N2CCN(c3ccc(OC)cc3)CC2)c1C", "Potency": "inconclusive: 31.6 µM [activator, single point]"}, {"smiles": "COc1ccc(N2C(=O)NC3CC2(C)Oc2ccc(Br)cc23)cc1OC", "note": "(stereo not given)", "Potency": "inconclusive: 25.1 µM [activator, single point]"}, {"smiles": "CC(C)CC(=O)NC(=S)Nc1nc(-c2cccc3ccccc23)cs1", "Potency": "inconclusive: 31.6 µM [inhibitor, single point]"}, {"smiles": "CCOc1ccc(NC(=O)Cc2csc(COc3cccc(C)c3)n2)cc1", "max response, negative = inhibition": "inactive: -6.65%"}, {"smiles": "O=C(NCc1ccncc1)Nc1cccc(Cl)c1", "max response, negative = inhibition": "inactive: -1.98%"}, {"smiles": "COc1ccc(-c2cc(C(F)(F)F)n3nc(C(=O)NCc4ccco4)cc3n2)cc1OC", "Potency": "inconclusive: 25.1 µM [activator, partial curve]"}, {"smiles": "Cc1ccc(S(=O)(=O)N(CCCO)CC(O)CON=C2c3ccccc3-c3ccccc32)cc1", "note": "(stereo not given)", "Potency": "inconclusive: 31.6 µM [activator, single point]"}, {"smiles": "CSc1nc(C)c(C(=O)Nc2ccccc2)c(C)c1C#N", "max response, negative = inhibition": "inactive: -2.1%"}, {"smiles": "O=C(COC(=O)/C=C/c1ccc([N+](=O)[O-])cc1)NCc1ccccc1", "Potency": "inconclusive: 39.8 µM [inhibitor, single point]"}, {"smiles": "COC(=O)c1ccc(C(=O)OC)c(NC(=S)N2CCN(c3cc(Cl)ccc3C)CC2)c1", "Potency": "inconclusive: 39.8 µM [inhibitor, single point]"}, {"smiles": "COc1cccc(NC(=O)Cn2c(=O)n(-c3ccc(CC(=O)NCC4CCCO4)cc3)c(=O)c3ccccc32)c1", "note": "(stereo not given)", "Potency": "inconclusive: 39.8 µM [activator, single point]"}, {"smiles": "CC(NC(=O)COc1ccc(/C=N/NC(=O)C(=O)Nc2ccccc2Br)cc1)c1ccccc1", "note": "(stereo not given)", "Potency": "inconclusive: 10 µM [activator, partial curve]"}, {"smiles": "Cc1ccc2cc3cc(C(=O)N4CCN(C(=O)c5ccco5)CC4)sc3nc2c1", "Potency": "inconclusive: 39.8 µM [activator, single point]"}, {"smiles": "Cc1ccc(CSCC(=O)N2CCN(Cc3ccc4c(c3)OCO4)CC2)cc1", "max response, negative = inhibition": "inactive: 17.4%"}, {"smiles": "CC(=C/C=C/C(C)=C/C=C/C=C(C)/C=C/C=C(C)/C=C/C(=O)O)/C=C/C(=O)O", "Potency": "inconclusive: 31.6 µM [activator, partial curve]"}, {"smiles": "O=C(/C=C/c1ccc2c(c1)OCO2)Nc1nc2ccccc2s1", "max response, negative = inhibition": "inactive: -11.1%"}, {"smiles": "CC(C)Oc1ccc(C(=O)/C(=C\\c2cccs2)c2nc3ccccc3o2)cc1", "Potency": "inconclusive: 31.6 µM [inhibitor, single point]"}, {"smiles": "Cc1ccc(NS(=O)(=O)c2ccc(OCC(=O)Nc3cccc([N+](=O)[O-])c3)c(C)c2)cc1", "Potency": "inconclusive: 31.6 µM [inhibitor, single point]"}, {"smiles": "Cn1c(SCC(=O)c2ccc(-c3ccccc3)cc2)nnc1-c1ccco1", "Potency": "inconclusive: 3.16 µM [inhibitor, full curve]"}, {"smiles": "Cc1ccc(Cl)cc1NC(=O)Cn1c(=O)c(CNc2ccccc2)cc2cc3c(cc21)OCCO3", "Potency": "inconclusive: 39.8 µM [inhibitor, single point]"}, {"smiles": "O=C(Nc1ccccc1C(=O)OCc1cc(=O)n2nc(C3CC3)sc2n1)c1cccc(Cl)c1", "Potency": "inconclusive: 31.6 µM [inhibitor, single point]"}, {"smiles": "CCC1Oc2ccc(C)cc2N(CC(=O)N(Cc2ccncc2)Cc2ccco2)C1=O", "note": "(stereo not given)", "Potency": "inconclusive: 39.8 µM [activator, single point]"}, {"smiles": "COCCCn1c2nc3ccccc3nc2c2c(=O)n(Cc3ccc(Cl)cc3)cnc21", "Potency": "inconclusive: 31.6 µM [activator, single point]"}, {"smiles": "O=C(NCc1ccc(-c2nc3ccccc3s2)cc1)c1ccc(Br)o1", "Potency": "inconclusive: 31.6 µM [inhibitor, single point]"}, {"smiles": "COc1ccc(C(=O)NCCc2sc(-c3cccc(F)c3)nc2C)cc1", "max response, negative = inhibition": "inactive: -10.8%"}, {"smiles": "COCCn1c(SCC(=O)Nc2ccc(F)c(Cl)c2)nc2c(oc3ccccc32)c1=O", "max response, negative = inhibition": "inactive: -2.84%"}, {"smiles": "O=[N+]([O-])c1ccc(N2CCCC2)cc1N/N=C1\\CN2CCC1CC2", "Potency": "active: 25.1 µM"}, {"smiles": "COC(=O)CSc1nnc([C@H](Cc2ccccc2)NC(=O)OC(C)(C)C)o1", "max response, negative = inhibition": "inactive: 4.08%"}, {"smiles": "O=C(Nc1ccccc1)Nc1nnc(-c2cccs2)s1", "Potency": "inconclusive: 31.6 µM [inhibitor, single point]"}, {"smiles": "Cc1ccc(/C=C2/Sc3ccccc3N(CC(=O)NCCCOC(C)C)C2=O)cc1", "Potency": "inconclusive: 25.1 µM [activator, single point]"}, {"smiles": "Cc1nn(C)c(C)c1CN(C)C(=O)c1cc2nc(-c3ccco3)cc(C(F)(F)F)n2n1", "Potency": "inconclusive: 31.6 µM [activator, single point]"}, {"smiles": "CCS(=O)(=O)c1ncc(N(Cc2ccco2)Cc2sccc2C)c(C(=O)Nc2cc(C)ccc2C)n1", "max response, negative = inhibition": "inactive: -27.2%"}]}]}
